Data published in publication PMC4336329 (PLoS ONE, 2015).
About 14,000 (4.5%) of roughly 310,000 compounds showed an effect of 50% or more. The effect is printed as a negative number. The list shows a part of the results.

biological target: human ether-à-go-go-related gene (hERG) potassium channel (human, UniProt Q12809); experiment: primary screen, population patch clamp on CHO cells stably expressing hERG
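Further: peak tail current of the secondary pulse compared with the same well before compound.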

human ether-à-go-go-related gene (hERG) potassium channel, sequence (Q12809 whole entry, looked up): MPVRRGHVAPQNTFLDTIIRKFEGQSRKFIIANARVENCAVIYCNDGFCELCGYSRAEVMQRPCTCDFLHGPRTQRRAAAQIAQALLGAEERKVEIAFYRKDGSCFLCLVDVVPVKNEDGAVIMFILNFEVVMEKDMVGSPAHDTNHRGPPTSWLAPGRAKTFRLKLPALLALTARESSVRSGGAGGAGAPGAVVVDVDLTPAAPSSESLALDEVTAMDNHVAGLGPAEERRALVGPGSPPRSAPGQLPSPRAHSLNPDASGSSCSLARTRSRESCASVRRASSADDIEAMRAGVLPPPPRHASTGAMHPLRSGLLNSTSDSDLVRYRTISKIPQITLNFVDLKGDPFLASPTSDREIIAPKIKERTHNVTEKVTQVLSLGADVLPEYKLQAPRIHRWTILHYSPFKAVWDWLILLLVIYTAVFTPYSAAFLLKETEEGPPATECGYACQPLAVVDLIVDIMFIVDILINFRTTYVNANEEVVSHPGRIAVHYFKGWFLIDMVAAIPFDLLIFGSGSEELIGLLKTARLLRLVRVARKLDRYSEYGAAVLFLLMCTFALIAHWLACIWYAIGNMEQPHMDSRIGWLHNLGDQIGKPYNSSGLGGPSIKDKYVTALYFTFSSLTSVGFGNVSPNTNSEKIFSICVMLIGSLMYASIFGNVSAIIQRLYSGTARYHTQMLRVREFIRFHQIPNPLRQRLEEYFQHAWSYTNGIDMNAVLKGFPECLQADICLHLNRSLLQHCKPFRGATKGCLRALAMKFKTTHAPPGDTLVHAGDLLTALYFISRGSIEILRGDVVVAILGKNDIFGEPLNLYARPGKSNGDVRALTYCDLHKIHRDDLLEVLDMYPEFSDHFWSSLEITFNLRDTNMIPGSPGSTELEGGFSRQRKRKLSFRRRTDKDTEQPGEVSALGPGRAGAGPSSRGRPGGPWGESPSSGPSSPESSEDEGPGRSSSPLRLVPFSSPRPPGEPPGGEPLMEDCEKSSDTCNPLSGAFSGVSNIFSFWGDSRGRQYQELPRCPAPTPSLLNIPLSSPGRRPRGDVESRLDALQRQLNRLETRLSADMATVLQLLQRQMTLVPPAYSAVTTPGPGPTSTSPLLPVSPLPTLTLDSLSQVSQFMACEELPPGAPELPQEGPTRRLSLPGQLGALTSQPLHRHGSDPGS

| SMILES | hERG current change (%, negative = inhibition) at 10uM [%] |
| --- | --- |
| CC(=O)OC(C(=O)Nc1nccs1)c1ccccc1 (centres unmarked) | 2.26 |
| CCN(CC(=O)Nc1c(F)cccc1F)C(=O)Cc1csc(-c2ccc(OC)c(OC)c2)n1 | -2.82 |
| CC(C)c1ccc(NC2CCCN(C(=O)c3cc(C(C)C)nc(N)n3)C2)cc1 (centres unmarked) | 1.21 |
| NS(=O)(=O)c1ccc(N/N=C/c2cn(-c3ccccc3)nc2-c2cccs2)c([N+](=O)[O-])c1 | 11.4 |
| COc1ccc(NC(=O)Nc2cc(C)ccc2F)cc1OC | 11 |
| Cc1cccc(C(=O)O/N=C/c2ccc(Br)cc2)c1 | 13.3 |
| C/C(=N\NC(=O)CN(c1ccc(C)cc1)S(C)(=O)=O)c1cccs1 | -8.31 |
| CCOC(=O)c1ccc(NC(=S)NNC(=O)C2(C)CC2(Cl)Cl)cc1 (centres unmarked) | 28.4 |
| CN(C)S(=O)(=O)N1CCC(Oc2ccc(C(=O)NC3CCCCC3)cc2)CC1 | 27.3 |
| COc1ccccc1Nc1n[nH]c(=S)s1 | 8.52 |
| Cc1ccc(NC(=O)CN(C)C(=O)COC(=O)c2nc3nccc(C)n3n2)cc1 | 7.33 |
| CCOC(=O)Cn1nnc(-c2ccc([N+](=O)[O-])cc2)n1 | -4.99 |
| O=C(O)CCCCC1SCC2NC(=O)NC21 (centres unmarked) | 3.46 |
| COc1cccc2cc(C(=O)C3=C(O)C(=O)N(CCN(C)C)C3c3ccc(F)cc3)oc12 (centres unmarked) | 1.39 |
| COc1cccc(NC(=O)CN(C)C(=O)c2ccc(NC(=O)CC3SC(N4CCCCC4)=NC3=O)cc2)c1 (centres unmarked) | 5.5 |
| Cc1ccc(N2CCN(S(=O)(=O)c3ccc4c(c3)n(C)c(=O)c(=O)n4C)CC2C)cc1 (centres unmarked) | 2.97 |
| CCCc1nc2c(C)cc(-c3nc4ccccc4n3C)cc2n1Cc1ccc(-c2ccccc2C(=O)O)cc1 | -31.7 |
| Cc1[nH]n(-c2ccccc2)c(=O)c1N=Nc1ccc(C#N)cc1 | 15.6 |
| Cn1c(SCC(=O)NNC(=O)c2ccccc2)nnc1C1CC1 | 10.8 |
| COC(=O)c1sccc1-c1ccc(/C=N/OC(=O)c2ccccc2)o1 | 7.69 |
| Cc1ccccc1NC(=O)CSc1nnc(-c2ccoc2C)n1CCc1ccccc1 | -59.6 |
| Cc1cc(C)n(-c2nc(SCC(=O)O)c3c4c(sc3n2)COC(C)(C)C4)n1 | 2.48 |
| O=C(Nc1cc(S(=O)(=O)N2CCCCC2)ccc1Oc1ccccc1)C1=COCCO1 | -10.6 |
